Experimental data taken from PMC4336329 (PLoS ONE, 2015).
Hit rate of the full screen: of about 310,000 compounds, about 14,000 (4.5%) showed an effect of 50% or more. The effect is printed as a negative number. The list shows a part of the results.

Molecular target: human ether-à-go-go-related gene (hERG) potassium channel (human, UniProt Q12809)
Experiment: primary screen, population patch clamp on CHO cells stably expressing hERG
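Further: peak tail current of the secondary pulse compared with the same well before compound.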

Sequence of human ether-à-go-go-related gene (hERG) potassium channel (Q12809 whole entry, looked up): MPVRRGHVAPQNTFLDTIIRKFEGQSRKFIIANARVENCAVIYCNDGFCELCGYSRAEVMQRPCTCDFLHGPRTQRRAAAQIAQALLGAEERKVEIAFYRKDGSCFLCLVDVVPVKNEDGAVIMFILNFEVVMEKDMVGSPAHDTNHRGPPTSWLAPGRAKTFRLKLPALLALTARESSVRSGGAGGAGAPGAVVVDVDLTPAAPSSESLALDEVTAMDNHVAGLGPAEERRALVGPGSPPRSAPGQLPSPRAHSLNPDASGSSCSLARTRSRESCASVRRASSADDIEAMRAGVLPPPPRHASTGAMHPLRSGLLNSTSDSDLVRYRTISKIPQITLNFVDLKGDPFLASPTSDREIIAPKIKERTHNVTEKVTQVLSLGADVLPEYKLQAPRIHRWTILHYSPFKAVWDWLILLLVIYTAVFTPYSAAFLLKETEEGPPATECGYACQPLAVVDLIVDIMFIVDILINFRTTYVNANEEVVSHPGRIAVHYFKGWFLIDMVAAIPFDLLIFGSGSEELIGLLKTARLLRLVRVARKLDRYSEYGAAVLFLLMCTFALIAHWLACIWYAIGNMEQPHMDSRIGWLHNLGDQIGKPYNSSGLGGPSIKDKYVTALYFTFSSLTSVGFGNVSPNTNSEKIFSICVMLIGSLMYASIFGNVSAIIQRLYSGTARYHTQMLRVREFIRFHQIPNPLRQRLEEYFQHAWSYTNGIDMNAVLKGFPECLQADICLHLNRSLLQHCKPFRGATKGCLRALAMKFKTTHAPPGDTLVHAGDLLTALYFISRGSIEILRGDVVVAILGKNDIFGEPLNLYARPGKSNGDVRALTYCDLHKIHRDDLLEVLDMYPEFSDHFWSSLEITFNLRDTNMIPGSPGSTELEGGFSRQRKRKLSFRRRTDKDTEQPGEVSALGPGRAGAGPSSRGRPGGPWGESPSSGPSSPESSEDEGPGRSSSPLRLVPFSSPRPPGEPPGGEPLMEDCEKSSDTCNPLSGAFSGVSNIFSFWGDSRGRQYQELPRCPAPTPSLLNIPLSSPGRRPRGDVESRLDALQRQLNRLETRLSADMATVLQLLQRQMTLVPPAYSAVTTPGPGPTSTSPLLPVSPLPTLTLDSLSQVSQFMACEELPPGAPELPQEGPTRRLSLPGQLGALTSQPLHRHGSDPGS

Row | SMILES | hERG current change (%, negative = inhibition) at 10uM
1 | O=C(NCCC1CCCCN1S(=O)(=O)c1cccs1)C(=O)Nc1ccc(F)cc1F (centres unmarked) | 13.9%
2 | O=C(N/N=C/c1cccc(NC(=O)c2ccc(Cl)cc2)c1)c1cccc(O)c1 | 16.4%
3 | O=C(NCCc1ccccn1)c1ccc2nc(Cc3ccccc3F)oc2c1 | -2.4%
4 | O=C(Cc1cccs1)Nc1ccc2c(c1)C(=O)OC2 | 5.08%
5 | CSC1=C(C#N)C(c2ccccc2Cl)C2=C(N1)c1ccccc1C2=O (centres unmarked) | 6.44%
6 | CSc1ncc(CN2CCc3c([nH]c4ccccc34)C2c2cccc(O)c2)cn1 (centres unmarked) | -22.9%
7 | Cc1c(N=Cc2c(O)n(Cc3ccc(F)cc3)c(=O)[nH]c2=O)c(=O)n(-c2ccccc2)n1C | -26%
8 | COCCNc1nnc(SC(C)C(=O)Nc2ccc(-c3nc4ccc(C)cc4s3)cc2)s1 (centres unmarked) | 13.4%
9 | Cc1ccc(S(=O)(=O)NCCN2CCOCC2)cc1 | 0.417%
10 | COc1ccc(/C=C(\C#N)C(=O)OCC(=O)NC2CC2)cc1 | 14.1%
11 | Cn1nc([N+](=O)[O-])c(C(C#N)c2ccccn2)c(Cl)c1=O (centres unmarked) | 7.61%
12 | Cn1c(=NC(=O)CS(=O)(=O)c2ccccc2)sc2cc([N+](=O)[O-])ccc21 | -36.5%
13 | CC(=O)NC(=S)Nc1ccc([N+](=O)[O-])cc1C | -31.8%
14 | Cc1cccc(C)c1NC(=O)COC(=O)CN1C(=O)C2CCCCC2C1=O (centres unmarked) | 5.85%
15 | Cc1oc(C)c2c(=O)ccc3c(c12)OC(N)=C(C#N)C3c1ccc(F)cc1 (centres unmarked) | -6.44%
16 | COc1ccccc1NC(=O)C1CC(C)OC1=O (centres unmarked) | 12.8%
17 | CCn1c(CSc2nc3ccccc3s2)nnc1SCC(=O)c1ccc2c(c1)OCCO2 | -10.5%
18 | CCN(Cc1ccccc1)S(=O)(=O)c1c(N)n(C)c(=O)n(C)c1=O | 5.47%
19 | COc1ccc(C(=O)COC(=O)c2ccc3ccccc3n2)cc1 | -7.97%

Row | SMILES | hERG current change (%, negative = inhibition) at 10uM
20 | O=C(CC(=O)Nc1cccc(Cl)c1)N/N=C\c1ccccc1 | 6.81%
21 | O=C(NNC(=O)c1ccccc1[N+](=O)[O-])c1cnccn1 | -6.66%
22 | Cc1ccc(CNS(=O)(=O)c2c(N)n(C)c(=O)n(C)c2=O)cc1 | 8.77%
23 | CC(C)CCNS(=O)(=O)c1cc2c3c(c1)CCN3C(=O)CC2 | 2.2%
24 | Cc1oc(-c2ccc(Cl)cc2)nc1CN1CCC(C(=O)NCC2CCCO2)CC1 (centres unmarked) | -70.1%
25 | CC1CCCC(C)N1CC(O)Cn1c2ccccc2c2ccccc21 (centres unmarked) | -37.4%
26 | O=c1oc2ccccc2c(Nc2cccc3cccnc23)c1[N+](=O)[O-] | 17.8%
27 | COc1ccc(/C=C2\SC(=S)N(CC(=O)NCCO)C2=O)cc1 | 16.5%
28 | CC1=C(C(=O)N2CCc3ccccc32)C2(CCC(C)CC2)OC1=O (centres unmarked) | -23.5%
29 | O=C(Nc1ccc2c(c1)CCC2)Nc1ccc(F)cc1F | 15.5%
30 | CS(=O)(=O)N(CC(=O)NCCc1ccccc1)C1CCCCC1 | -4.17%
31 | O=C(CSc1nnc(CNC(=O)c2cccs2)o1)NCCc1ccccc1 | -1.98%
32 | CCc1ccc(/C=C2\SC(=S)N(CCC(=O)NC3=NCCS3)C2=O)cc1 | 27.8%
33 | O=C(c1ccc2nc[nH]c2c1)N1CCc2ccccc2C1 | 0.829%
34 | O=C(CS(=O)(=O)c1ccccc1)NCc1ccc(Cl)cc1 | 7.79%
35 | CSc1ccc(NS(=O)(=O)c2ccc(-n3cnnn3)cc2)cc1 | 3.08%
36 | CC(C)c1ccccc1NC(=O)COC(=O)Cc1c[nH]c2ccccc12 | 7.28%
37 | O=C(NC1CC1)C1=C[C@H](C2CCCCC2)C[C@H](OCCCCO)O1 | -16%
38 | Cc1ccc2[nH]c3c(=O)[nH]ncc3c2c1 | -0.439%

Row | SMILES | hERG current change (%, negative = inhibition) at 10uM
39 | NC(=O)c1ccccc1OCC(=O)NC12CC3CC(CC(C3)C1)C2 | 7.48%
40 | O=C(CSc1nnc2ccc(-c3ccccn3)nn12)Nc1ccccc1F | 17.3%
41 | O=C(CCS(=O)(=O)Cc1ccccc1)N1CCc2ccccc2C1 | -0.206%
42 | Cc1cc(C)cc(NC(=O)C(OC(=O)C2=COCCO2)c2ccccc2)c1 (centres unmarked) | -8.3%
43 | O=C(CCC(=O)Nc1ccccc1Cl)NN=C1CCCC1 | 4.23%
44 | COc1cccc(NC(=O)COC(=O)Cc2ccc(Br)cc2)c1 | 5.51%
45 | COC(=O)C1=C(C)NC(=O)NC1c1ccc(-c2ccc(F)cc2)o1 (centres unmarked) | 10.8%
46 | CCN=C1SC(CC(=O)NC(C)c2ccccc2)C(=O)N1CC (centres unmarked) | 16.7%
47 | CCN(CC)S(=O)(=O)c1ccc(C(=O)Nc2cc(C)cc(C)c2)cc1 | -8.53%
48 | CCOc1ccccc1OCc1nn2c(COc3ccccc3)nnc2s1 | 4.95%
49 | CC(C)(C)C1CCc2c(C(=O)NNC(=O)/C=C/C(=O)O)csc2C1 (centres unmarked) | 10.3%
50 | Cc1ccc(NS(=O)(=O)c2ccc3c(c2)NC(=O)C(C)C(=O)N3)c(Cl)c1 (centres unmarked) | 0.637%
51 | CCCN1CCN(S(=O)(=O)c2ccc3c(c2)NC(=O)C(C)S3)CC1 (centres unmarked) | -3.49%
52 | CCOC(=O)C[C@H]1c2ccccc2S(=O)(=O)N1c1cccc(OC)c1 | 0.858%
53 | COC(=O)c1ccc(NC(=O)C23CC4CC(C2)CC(n2cnc(Cl)n2)(C4)C3)cc1 | -27.3%
54 | CCCn1cc(SCC(=O)NCc2ccc3c(c2)OCO3)c2ccccc21 | -0.451%
55 | COc1ccc2cc(C(=O)N(C)CC(=O)Nc3ccccc3Br)ccc2c1 | -5.11%
56 | CC/C(C)=N/NC(=O)c1[nH]c2ccc(C)cc2c1-c1ccccc1 | 0.516%
